Source: patent US20240092866A1 (AVIRMAX BIOPHARMA, published 2024)
Several values for one entry are separate records, joined by “and”; a condition that tells them apart may be missing. Equal entries are not always repeated.

T1: human VEGF-A165 (expressed in HEK293 cells, GeneScript Cat #Z03073) (human, UniProt P15692-4 27-191)
T1 construct: also called rhVEGF-A165; rhVEGF
T1 sequence (looked up): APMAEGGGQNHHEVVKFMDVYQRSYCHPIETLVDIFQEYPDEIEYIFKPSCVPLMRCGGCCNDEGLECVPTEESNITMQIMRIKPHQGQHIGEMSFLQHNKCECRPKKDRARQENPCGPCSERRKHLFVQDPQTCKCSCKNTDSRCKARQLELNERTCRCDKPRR

B1: Aflibercept, commercial product (Eylea, Regeneron Pharmaceuticals, Tarrytown, NY) (Fc fusion)
chain: DTGRPFVEMYSEIPEIIHMTEGRELVIPCRVTSPNITVTLKKFPLDTLIPDGKRIIWDSRKGFIISNATYKEIGLLTCEATVNGHLYKTNYLTHRQTNTIIDVVLSPSHGIELSVGEKLVLNCTARTELNVGIDFNWEYPSSKHQHKKLVNRDLKTQSGSEMKKFLSTLTIDGVTRSDQGLYTCAASSGLMTKKNSTFVRVHEK[… human IgG1 Fc …]
notes: Bought commercial product; MW 115 kDa was used for molarity; also called commercial aflibercept; commercial VEGF-Trap
B2: AAV2.N54-AMI120 derived VEGF-Trap (AVMX-110 derived VEGF-Trap), expressed in HEK293 cells and purified by protein A affinity chromatography (Fc fusion)
chain: B1 chain
notes: no cleavage site is stated; also called AVMX-110 VEGF-Trap; AAV2.N54.120 derived VEGF-Trap

Legend:
[1] = biological target: T1, human VEGF-A165 (expressed in HEK293 …); assay: Biacore SPR, aflibercept captured on protein A chip, VEGF-A165 as analyte
Procedure: (§1) Interaction between AVMX-110 derived VEGF-Trap and human VEGF-A₁₆₅ was analyzed by the surface plasmon resonance (SPR) method.
(§2) VEGF-Trap protein was expressed by HEK293 cell transfected with expression vector, AAV2.N54-AMI120, and purified by a protein A affinity column chromatography. The eluate was neutralized and concentrated to the concentration of 4.31 mg/ml. Aflibercept was commercial product, which was diluted into 4 mg/ml. VEGF-A₁₆₅ was obtained from Genescript (GeneScript, Cat #Z03073, Nanjing China), which was reconstituted into 1 mg/ml. Working solution of each stock protein was prepared at 200 nM prior to experimentation. Molarity concentrations were calculated using MW: 115 kDa for VEGF-Trap and aflibercept, 45 kDa for VEGF-A₁₆₅. […] Binding kinetic simulation was analyzed with Biacore evaluation software.

[2] = biological target: T1, human VEGF-A165 (expressed in HEK293 …); assay: ELISA, plate coated with rhVEGF-A165, detection with anti-human IgG1 Fc
Procedure: The assay for determining binding affinity was performed. Briefly, purified from AAV2.N54-VEGF-Trap expressed VEGF-Trap was assayed for its binding affinity to rhVEGF. A 96-well plate was coated with rhVEGF-A₁₆₅ at 0.1 μg/mL at 2-8° C. overnight. The plate was washed 3×300 μL with washing buffer (0.05% Tween−20 in PBS, pH 7.3±0.1) and blocked with blocking buffer containing 1% casein for 120 min. […] Diluted (1:40,000) biotinylated rabbit anti-human IgG1 Fc antibody solution was added at 100 μL/well after 3×300 μL/well of washing buffer. Further incubation at 37±1° C. for 60 minutes and washing with 3×300 μL/well of washing buffer were performed. Finally, to each well, streptavidin-HRP, 1:40,000, was added at 100 μL/well and incubated at 37±1° C. for 60 minutes. The substrate TMB solution after 3×300 μL/well washing, was added and incubated at 37±1° C. for 15 minutes followed by stopping with stop solution 100 μL/well. The plate was read at 600 nm wavelength in a microplate reader (Molecular Device, Sunnyvale, CA).

[3] = biological target: T1, human VEGF-A165 (expressed in HEK293 …); assay: Biacore SPR, VEGF-Trap captured on protein A chip, VEGF-A165 as analyte
Procedure: as §1, §2

| Binder | Ka [1] [M⁻¹] | Kd [1] [nM] | koff [1] [s⁻¹] | kon [1] [M⁻¹ s⁻¹] | Kd [2] | Ka [3] [M⁻¹] | Kd [3] [nM] | kon [3] [M⁻¹ s⁻¹] |
| --- | --- | --- | --- | --- | --- | --- | --- | --- |
| B1 | 1.83e+10 | 0.0545 | 0.000188 | 3.45e+06 | 0.00686 µg/mL and 0.06 nM |  |  |  |
| B2 |  |  |  |  | 0.00863 µg/mL and 0.075 nM | 3e+10 | 0.033 | 6.07e+06 |
